Experimental data: US11726087B2, “Methods, compositions, and kits for detection of aspergillosis” (priority 2013, dated 2023)

Legend:
Asp f2 = target: T1, Asp f2 (Aspergillus fumigatus, UniProt P79017); test: Bead-based protease activity assay with different capture antibodies, A. fumigatus culture filtrate; conditions: culture filtrate from A. fumigatus
T1 construct: 1: A. fumigatus culture filtrate of a 9-day culture; endogenous in cells; host or cells: Aspergillus fumigatus culture filtrate
T1 sequence (P79017 32-310): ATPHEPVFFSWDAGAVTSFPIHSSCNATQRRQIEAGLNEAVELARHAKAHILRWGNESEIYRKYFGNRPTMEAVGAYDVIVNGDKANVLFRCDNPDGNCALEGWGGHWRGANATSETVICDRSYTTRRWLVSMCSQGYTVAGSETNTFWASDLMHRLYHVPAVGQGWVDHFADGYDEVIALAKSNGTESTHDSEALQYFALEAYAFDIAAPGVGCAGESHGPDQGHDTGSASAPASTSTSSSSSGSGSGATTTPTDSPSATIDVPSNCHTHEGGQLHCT

native Asp f2 = target: T2, native Asp f2 (Aspergillus fumigatus, UniProt P79017); test: Western blot, binding to native Asp f2; parameters: species or system A. fumigatus
T2 construct: beads were incubated with native or recombinant Asp f2; endogenous in cells; host or cells: Aspergillus fumigatus (preparation of the native protein not described for this assay)
Description: (§1) Western blots were performed to compare the binding specificity of 5D7A1 and the recombinant scFvs generated in Example 8.

recombinant SMT3-Asp f2 = target: T3, recombinant SMT3-Asp f2 (Aspergillus fumigatus, UniProt P79017); test: Western blot, binding to recombinant SMT3-Asp f2; parameters: species or system A. fumigatus
T3 construct: 3: recombinant (r)SMT3-Asp f2; Thioredoxin (Trx) (N); His6 (internal); S-tag (internal); made in house; host or cells: Escherichia coli
Description: as §1

B1: 5D7A1: novel anti-Asp f2 monoclonal antibody, VH SEQ ID NO: 1, VL SEQ ID NO: 2 (antibody, V domains shown)
VH: LPEFEVQLEESGAELARPGASVKMSCKASGYTFTTYTMHWVKQRPGQGLEWIGYINPSSGYTNYNQKFKDKATLTANKSSSIGYMQLSSLTSEDSALYYCLRRPYRSHGGWFFDVWGAGTTVTVSSAKTTPPSVYRSSK
VL: MESQTQVFVYMLLWLSGVDGDIVMTQSQKFMSTSVGDRVSVTCKASQNVETNVAWYQQKLGQSPKALIYSASFRTSGVPDRFTGSGSGTDFTLTINNVQSEDLAEYFCQQYNTYPLTFGAGTKLELKRADAAPTVSISHHPVLES
modifications: mAb 5D7A1 VH domain; mAb 5D7A1 VL domain
With B1 the “Asp f2 proteolytic cleavage of 5-Fam-elastin substrate after capture on antibody beads” value (Asp f2; 5-Fam-elastin substrate) was “most robust proteolytic activity”, the “Asp f2 proteolytic cleavage of FITC-collagen substrate after capture on antibody beads” value (Asp f2; FITC-collagen substrate) was “most robust proteolytic activity” and the “binding to native Asp f2 in Western blot” value (native Asp f2; A. fumigatus culture filtrates, different glycosylation states) was “bound native Asp f2”. For the same molecule, the “Western blot signal with unglycosylated Asp f2, 5D7A1 compared with scFv” value (native Asp f2; unglycosylated Asp f2, band at ~40 kDa) was “stronger signal” and the “binding to recombinant SMT3-Asp f2 in Western blot” value (recombinant SMT3-Asp f2) was “weakly bound”.
